According to PubChem BioAssay AID1745853 (National Center for Advancing Translational Sciences (NCATS), 2022):
This is one part of the list. These are further read-outs of the screen, such as a control signal, another cell line or another target. No call is given for them.

Assays:
Test in all cases: Primary Screen for Target Class Profiling of Small Molecule Inhibitors of Methyltransferases
[1] = target: Glycine N-methyltransferase (Homo sapiens) (UniProt Q14749); conditions: purified enzyme, MTase-Glo SAH luminescence; measured here: GNMT inhibition; at 40 µM; stronger effect = lower value
Method in brief: (§1)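 Each enzyme was assayed with SAM and its substrate. SAH formation detected by MTase-Glo luminescence; single-point 40 uM screen[…].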

[2] = target: Guanidinoacetate N-methyltransferase (Homo sapiens) (UniProt Q14353); conditions: purified enzyme, MTase-Glo SAH luminescence; measured here: GAMT inhibition; at 40 µM; stronger effect = lower value
Method in brief: as §1

[3] = target: Histamine N-methyltransferase (Homo sapiens) (UniProt P50135); conditions: purified enzyme, MTase-Glo SAH luminescence; measured here: HNMT inhibition; at 40 µM; stronger effect = lower value
Method in brief: as §1

[4] = target: Nicotinamide N-methyltransferase (Homo sapiens) (UniProt P40261); conditions: purified enzyme, MTase-Glo SAH luminescence; measured here: NNMT inhibition; at 40 µM; stronger effect = lower value
Method in brief: as §1

[5] = target: Phenylethanolamine N-methyltransferase (Homo sapiens) (UniProt P11086); conditions: purified enzyme, MTase-Glo SAH luminescence; measured here: PNMT inhibition; at 40 µM; stronger effect = lower value
Method in brief: as §1
On the % scale 0 is the no-effect control and ±100 the full control effect.

| SMILES | activity change, negative = inhibition [1] [%] | activity change, negative = inhibition [2] [%] | activity change, negative = inhibition [3] [%] | activity change, negative = inhibition [4] [%] | activity change, negative = inhibition [5] [%] |
| --- | --- | --- | --- | --- | --- |
| CC(C)=CCC/C(C)=C/CC/C(C)=C/COC1OC(COC2OCC(OC3OCC(O)C(O)C3O)C(O)C2O)C(O)C(OC2OC(C)C(OC3OC(C)C(OC4OCC(OC5OC(C)C(O)C(O)C5O)C(O)C4O)C(O)C3O)C(O)C2O)C1O (stereo not given) | -17.2 | 0.337 | -4.68 | -11.5 | 3.11 |
| Cc1ccc(C)c(NC(=O)N2CCC(n3cnnc3C3CC3)C2)c1 (stereo not given) | -1.82 | 0.364 | 1.58 | 1.22 | 15.6 |
| CC1=CC2/C=C(\C)CCC(O)C(=O)C(O)CC(=O)C23C(=O)NC(CC(C)C)C3C1C (stereo not given) | -1.77 | 0.117 | 11.7 | -14.7 | -9.18 |
| CC1CCCC(NC(=O)C2(C)Cn3c(ccc3-c3ccco3)C(=O)N2Cc2ccc(F)cc2)C1C (stereo not given) | -0.164 | 0 | 3.75 | -5.07 | 1.7 |
| COc1cccc(CN2C(=O)c3cc4oc(C)cc4n3CC2(C)C(=O)NC2CCCCCC2)c1 (stereo not given) | -7.52 | 2.42 | -6.82 | -12.2 | -9.7 |
| O=C(O)c1ccc(S(=O)(=O)N(Cc2ccc(OC(F)(F)F)cc2)c2ncc(C(F)(F)F)cc2Cl)cc1 | -2.45 | 15.1 | 10.3 | -16.4 | 3.18 |
| COc1ccccc1CNC(=O)c1cc2n(n1)CC(C)(C(=O)NCc1ccc(F)cc1)N(C)C2=O (stereo not given) | -0.004 | 0.935 | -0.881 | -1.27 | 0.377 |
| CCc1cc2c(cc3n2CC(C)(C(=O)NC2CCCCCC2)N(Cc2ccc(C)cc2)C3=O)s1 (stereo not given) | 2.96 | 2 | 7.85 | 2.23 | 1.97 |
| COC(=O)N(C)Cc1cccc(N2CCN(S(=O)(=O)c3cccc4ccccc34)CC2)c1F | -0.697 | 0.992 | 2.19 | 1.34 | -0.928 |
| Cc1ccc(NC(=O)Cn2nc3n(C)c(=O)c4ccc(C(=O)NC5CCCC5)cc4n3c2=O)c(Cl)c1 | 1.16 | 0 | 5.63 | 2.62 | 2.57 |
| O=C(N[C@H]1C[C@@H](CO)N(CC2CCCCC2)C1)c1cccnc1 | -7.32 | -7.68 | -7.23 | -9.68 | -8.41 |
| CC1(C)SCCN(S(=O)(=O)c2ccc(Oc3ccncc3)cc2)[C@H]1C(=O)NO | 4.27 | -3.85 | 7.27 | -11.3 | 3.16 |
| CN(C)C[C@H]1O[C@H](Cc2cc(CN(C)Cc3ccccc3)on2)CC[C@@H]1O | 0.03 | 2.89 | -2.58 | -2.03 | 12.7 |
| CCOc1ccc(N(CC)C(=O)c2ccc3c(c2)N(S(C)(=O)=O)CC3)cc1 | -2.9 | -0.291 | -3.83 | -3.64 | 1.14 |
| COCCN(Cc1nccs1)Cc1cn[nH]c1-c1ccc(F)cc1 | -11.6 | 2.25 | 0.892 | -4.64 | -2.58 |
